The results in this text go back to PubChem BioAssay AID1671189 (National Center for Advancing Translational Sciences (NCATS), 2021).

Hit rate of the full screen: of about 1,100 compounds, about 70 (6%) were called active. Inconclusive results (about 22%) are left out. The call rests on the fitted dose curve; in most records, active means well fitted curve in the direction sought with a large enough effect; inconclusive means small, poorly fitted or top-dose-only effect, or another doubt; inactive means no such curve, though single readings can be large or run the other way. Some of the results follow.
On the % scale 0 is the no-effect control and ±100 the full control effect; potency means the concentration at half of the fitted maximal effect.

UniProt P18054, sequence (P18054 whole entry, looked up): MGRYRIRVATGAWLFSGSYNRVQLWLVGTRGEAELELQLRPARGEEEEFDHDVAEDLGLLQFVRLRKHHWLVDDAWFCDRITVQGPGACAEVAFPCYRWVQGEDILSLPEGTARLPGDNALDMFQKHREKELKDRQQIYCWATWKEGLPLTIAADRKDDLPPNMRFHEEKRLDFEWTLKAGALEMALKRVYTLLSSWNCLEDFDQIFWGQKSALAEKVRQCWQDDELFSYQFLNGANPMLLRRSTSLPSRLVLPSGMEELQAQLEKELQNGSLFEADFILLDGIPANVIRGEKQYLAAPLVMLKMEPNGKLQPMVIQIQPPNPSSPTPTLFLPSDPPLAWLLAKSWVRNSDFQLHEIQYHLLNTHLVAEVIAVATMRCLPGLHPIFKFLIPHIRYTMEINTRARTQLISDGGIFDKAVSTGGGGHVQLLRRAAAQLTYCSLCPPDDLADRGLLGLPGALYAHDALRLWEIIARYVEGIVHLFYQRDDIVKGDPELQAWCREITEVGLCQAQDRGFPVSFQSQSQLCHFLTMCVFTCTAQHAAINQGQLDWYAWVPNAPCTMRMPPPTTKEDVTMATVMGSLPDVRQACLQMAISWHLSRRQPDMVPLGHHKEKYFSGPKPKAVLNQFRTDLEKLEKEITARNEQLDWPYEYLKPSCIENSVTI

In the assay the target is Polyunsaturated fatty acid lipoxygenase ALOX12 (Homo sapiens) (UniProt P18054). Description: Confirmatory qHTS assay for inhibitors of human arachidonate 12S-lipoxygenase (ALOX12): Round 2. The conditions noted are these: purified human 12-LOX, xylenol orange absorbance; series mostly up to 125 µM; activity change, negative = inhibition: at the top concentration. Summed up:
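Activity was measured as hydroperoxide formation via ferrous/xylenol orange, taking the 573 nm to 405 nm absorbance ratio. Reaction: 40 uM arachidonic acid, 30 min at room temperature, after 15 min compound preincubation with 150 nM enzyme, pH 7.0 Hepes buffer.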
In general terms: qHTS replaces the single test concentration by a dilution series.
As to `CCN1CCCC12Cc1ccccc1CN([S+](C)(=O)[O-])C2` (stereo not given), the “activity change, negative = inhibition” value is inactive: -17.1%.
Turning to `CCn1cc(-c2ccc(C)cc2)cc1C(=O)N1CCN(c2ccccn2)CC1`, the “activity change, negative = inhibition” value is inactive: -19.2% [at 64.5 µM].
Same read-out and setting: next, `COc1ccc(CC(=O)N2Cc3ccccc3CC23CCCN([S+](C)(=O)[O-])C3)cc1` (stereo not given): inactive: -10.5%.
As for `N#Cc1ccc(CN2CCn3c(nn(-c4cccc(Cl)c4)c3=O)C2)cc1`, the “activity change, negative = inhibition” value is inactive: -26.4%.
For `COC(=O)[C@@H]1Cc2ncn(Cc3ccc(OC)cc3)c2CN1Cc1ccc(OC)cc1`, the “activity change, negative = inhibition” value is inactive: -11.9%.
As for `COc1ccccc1N1C(=O)C=C(Sc2nc(C)cc(C)n2)C1=O`, the “activity change, negative = inhibition” value was inactive: -21.2%.
For the molecule `COc1cccc(-c2ccc(CN)cc2)c1`, the “activity change, negative = inhibition” value is inactive: -0.015%.
On to `Fc1ccc(OC2CN(CC3CC3)C2)cc1F`, for which the “activity change, negative = inhibition” value is inactive: -22.7% [at 233 µM].
`Fc1ccc(-c2ccc3ncc(Nc4ncccn4)n3n2)cc1`: the “activity change, negative = inhibition” value was inactive: 15.6% [at 64.5 µM].
Regarding `COc1ccc(CNc2ncnc3c2CN(C2CCNC2)C(=O)CN3C)cc1OC` (stereo not given), the “activity change, negative = inhibition” value is inactive: -15.6%.
For `CN1CC(=O)N(C2CCNC2)Cc2c(NCC3(O)CCCCC3)ncnc21` (stereo not given), the “activity change, negative = inhibition” value is inactive: -19.9%.
With `CC(=O)Nc1ccc(CN2CCCC23Cc2ccccc2CN(C(=O)CCC(=O)O)C3)cc1` (stereo not given), the “activity change, negative = inhibition” value was inactive: -14%.
With `CCN(c1ccc2c(c1)OCO2)C1CN(C(=O)OC(C)(C)C)C1`, the “activity change, negative = inhibition” value is inactive: -29.3%.
Still for that read-out and setting: next, `CN1CC(=O)N(C2CCNC2)Cc2c(NCCc3cccc(F)c3)ncnc21` (stereo not given): inactive: -17.9%.
On the same count and under the same terms, the result for `COCc1nc(C2CC(N)C2)cc(N2CCC(NS(C)(=O)=O)CC2)n1` (stereo not given) reads inactive: -26.2% [at 64.5 µM]; that for `CC(C)OCCCNc1ncnc2c1CN(C1CCCNCC1)C(=O)CN2C` (stereo not given), inactive: -7.35%.
The same measure, in the same setting: the result for `Cc1cncnc1C1CCN(c2cc(C3CC(N)C3)ncn2)CC1` (stereo not given) reads inactive: -9.06% [at 64.5 µM].
In the case of `COCCn1cc2c3c(cccc31)CN(C(=O)c1cccc(Cl)c1)CC2`, the “activity change, negative = inhibition” value is inactive: 37.4% [at 64.5 µM].
As for `CCCC(=O)N1Cc2ccccc2CC2(CCN(Cc3ccccc3)CC2)C1`, the “activity change, negative = inhibition” value is inactive: -3.28%.
On the same count and under the same terms, next, `COc1ccccc1CNc1ncnc2c1CN(C1CCCNCC1)C(=O)CN2C` (stereo not given): inactive: -16%; `O=C(NCC(F)(F)F)c1cc(C2CC2)nc2c1c(C1CCCN1)nn2-c1ccccc1` (stereo not given): inactive: -27.3%; `CC(C)c1nc2c(c(-c3ccc(Cl)cc3)n1)CCN(C(=O)c1ccc3c(c1)OCO3)CC2`: inactive: -23.4%.
As to `COc1ccc(-c2cc(C(=O)NCC(C)C)c3c(C4CCCN4)noc3n2)cc1` (stereo not given), the “activity change, negative = inhibition” value is inactive: -9.44%.
Same read-out and setting: next, `COC(=O)[C@@H]1Cc2nc[nH]c2CN1Cc1ccc(C(=O)O)cc1`: inactive: 18.8%; `CCOCCCNc1ncnc2c1CN(C1CCNCC1)C(=O)CN2C`: inactive: -15.7%; `O=C(NCC1(O)CCCNCC1)c1ccc(-n2cnnc2)cc1` (stereo not given): inactive: -17.1% [at 64.5 µM].
Consider `CN1CC(=O)N(C2CCNCC2)Cc2c1ncnc2N1CCCC1CO` (stereo not given), for which the “activity change, negative = inhibition” value was inactive: -22.3%.
In the case of `CCCCCNc1ncnc2c1CN(C1CCCNCC1)C(=O)CN2C` (stereo not given), the “activity change, negative = inhibition” value was inactive: -14.4%.
In the case of `CC(C)CNC(=O)c1cc(C2CC2)nc2onc(C3CCNCC3)c12`, the “activity change, negative = inhibition” value was inactive: -20.9%.
Take `Cc1ccc(NC(=O)N2Cc3[nH]cnc3C[C@H]2c2nc(-c3ccc4ccccc4c3)no2)cc1`: the “activity change, negative = inhibition” value was inactive: 3.35% [at 64.5 µM].
In the case of `Clc1ccc(-c2nnc(C3CCCCC3)o2)cc1`, the “activity change, negative = inhibition” value was inactive: 10.2% [at 64.5 µM].
For `O=C(c1ccncc1)N1CCC(c2nnc3n2CCNC3)CC1`, the “activity change, negative = inhibition” value is inactive: -10.2%.
As for `CN1CC(=O)N(C2CCNCC2)Cc2c(NCCN3CCOCC3)ncnc21`, the “activity change, negative = inhibition” value is inactive: 11.4%.
For the molecule `CCC(=O)NC(c1cc(Cl)c2cccnc2c1O)C(C)C` (stereo not given), the Potency was active: 10.9 µM.
For the molecule `CNCc1ccccc1-c1ccccc1`, the “activity change, negative = inhibition” value was inactive: -15% [at 233 µM].
Consider `Cc1cc(C(=O)NC2CC2)c2c(C3CCNCC3)noc2n1`, for which the “activity change, negative = inhibition” value was inactive: -1.86%.
In the case of `COc1ccc(N2CC3CCC(C2)N3CC(C)C)cc1`, the “activity change, negative = inhibition” value was inactive: -1.91%.
In the case of `Nc1ncn([C@H]2C[C@H](O)[C@@H](CO)O2)c(=O)n1`, the “activity change, negative = inhibition” value was inactive: 8.57%.
The same measure, in the same setting: the result for `COc1ccc(-c2nc(C3CC3)nc3c2CCN(Cc2ccc(F)cc2)CC3)cc1` reads inactive: -30.4%; that for `Cc1cc(C(=O)NC2CCCC2)c2c(C3CCNCC3)noc2n1`, inactive: -16.9%; that for `Cn1nc(C2CCCNC2)c2c(C(=O)NC3CC3)cc(C3CC3)nc21` (stereo not given), inactive: -12.1%.
Turning to `Cc1nn2c(c1-c1cccnc1N1CCOCC1)N(Cc1ccccc1F)CCC2`, the “activity change, negative = inhibition” value was inactive: -1.37% [at 64.5 µM].
Take `COc1ccc(C(=O)N2CCOC3(CCN(C(=O)CN)CC3)C2)cc1`: the “activity change, negative = inhibition” value is inactive: -13.5%.
Regarding `CC(C)C(=O)N1Cc2ccccc2CC2(CCCCN2CC2CCNC2)C1` (stereo not given), the “activity change, negative = inhibition” value is inactive: -15.4%.
Regarding `CN(C)CCC(=O)N1Cc2ccccc2CC2(CCCCN2CC2CCOCC2)C1` (stereo not given), the “activity change, negative = inhibition” value is inactive: -26.8%.
In the case of `Cc1nc(N2CCC(C(=O)NCc3ccc4c(c3)OCO4)CC2)cc(C(F)(F)F)n1`, the “activity change, negative = inhibition” value is inactive: -10.7% [at 64.5 µM].
Consider `Fc1ccc(CN2CCn3c(nnc3C3CCCNC3)C2)cc1` (stereo not given), for which the “activity change, negative = inhibition” value was inactive: -24.7%.
Still for that read-out and setting: next, `Cn1nc(C2CCCN2)c2c(C(=O)NCc3ccncc3)cc(C3CC3)nc21` (stereo not given): inactive: -4.98%; `COCCNc1nc2c([S+](=O)([O-])c3cc(OC)ccc3OC)nnn2c2ccccc12`: inactive: -8.46%; `O=C(c1ccccn1)N1CCc2nc(C3CC3)nc(-c3ccc(Cl)cc3)c2C1`: inactive: -8.99%.
In the case of `CC(CO)Nc1ncnc2c1CN(C1CCCNC1)C(=O)CN2C` (stereo not given), the “activity change, negative = inhibition” value was inactive: -11.5%.
With `C[S+](=O)([O-])N1Cc2ccccc2CC2(CCCCN2CC2CCNCC2)C1` (stereo not given), the “activity change, negative = inhibition” value was inactive: -4.25%.
Consider `O=Cc1ccc(-c2ccc(O)cc2)cc1`, for which the “activity change, negative = inhibition” value was inactive: -27.2% [at 233 µM].
On to `CCc1ccc(S(=O)(=O)c2nnn3c2nc(NCc2ccc(F)cc2)c2ccccc23)cc1`, for which the “activity change, negative = inhibition” value is inactive: -1.49%.
Take `CN1CC(=O)N(C2CCNCC2)Cc2c(NC3CCCCCC3)ncnc21`: the “activity change, negative = inhibition” value was inactive: -12.8%.
Still for that read-out and setting: the result for `CNc1oc(-c2ccc(-c3ccccc3)cc2)nc1C#N` reads inactive: -4.38% [at 64.5 µM]; that for `C[S+](=O)([O-])N1CCCC(c2nnc3n2CCNC3)C1` (stereo not given), inactive: -12.1%; that for `CN1CC(=O)N(c2cccc(F)c2)Cc2c(NC3CCNCC3)ncnc21`, inactive: -12%.
Consider `CN(C)C(=O)N1Cc2ccccc2OC2(CCN(C(=O)Cc3cnc[nH]3)CC2)C1`, for which the “activity change, negative = inhibition” value was inactive: 11.9%.
As to `COc1ccc(CN2CCCC23Cc2ccccc2CNC3=O)cc1` (stereo not given), the “activity change, negative = inhibition” value was inactive: -13.4%.
As to `Cc1cc(Cn2cnc3c2C[C@@H](C(=O)O)N(C(=O)C(c2ccccc2)c2ccccc2)C3)ccc1N(C)C`, the “activity change, negative = inhibition” value was inactive: -1.49%.
Consider `O=c1[nH]c(C2CCCN(Cc3ccc(-c4ccsc4)cc3)C2)nc2ccc(F)cc12` (stereo not given), for which the “activity change, negative = inhibition” value was inactive: -30.3%.
As for `CN1CC(=O)N(C2CCNCC2)Cc2c1ncnc2N1CCC(O)CC1`, the “activity change, negative = inhibition” value is inactive: -10.4%.
The same measure, in the same setting: the result for `O=C(O)c1cccc(-c2ccc(OC(F)(F)F)cc2)c1` reads inactive: -11.7%; that for `COc1ccc(-n2nc3n(c2=O)CCN(C(=O)c2ccccn2)C3)cc1`, inactive: -5.28%; that for `FC(F)(F)c1cccc(C2=NOC3(CCN(Cc4ccccc4)C3)C2)c1` (stereo not given), inactive: -27%.
On the same count and under the same terms, the result for `O=C(c1ccc(Cl)cc1)N1CCC(N2CCCC2)CC1` reads inactive: -26.2%; that for `O=C(O)C1=NOC2CN(Cc3c(F)cccc3Cl)CC12` (stereo not given), inactive: -19%.
Consider `CN1CC(=O)N(C2CCCNC2)Cc2c(NCCO)ncnc21` (stereo not given), for which the “activity change, negative = inhibition” value is inactive: -12.6%.
Still for that read-out and setting: the result for `O=S(=O)(c1ccccc1)N1Cc2ccccc2CC2(CCN(Cc3cccnc3)C2)C1` (stereo not given) reads inactive: -27.4%.
